From paper PMC4336329 (PLoS ONE, 2015)
Out of some 310,000 compounds screened, about 14,000 (4.5%) showed an effect of 50% or more. The effect is printed as a negative number. Some of the results follow.

These compounds were tested against human ether-à-go-go-related gene (hERG) potassium channel (human, UniProt Q12809) (assay: primary screen, population patch clamp on CHO cells stably expressing hERG).
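Note: peak tail current of the secondary pulse compared with the same well before compound.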

human ether-à-go-go-related gene (hERG) potassium channel, sequence (Q12809 whole entry, looked up): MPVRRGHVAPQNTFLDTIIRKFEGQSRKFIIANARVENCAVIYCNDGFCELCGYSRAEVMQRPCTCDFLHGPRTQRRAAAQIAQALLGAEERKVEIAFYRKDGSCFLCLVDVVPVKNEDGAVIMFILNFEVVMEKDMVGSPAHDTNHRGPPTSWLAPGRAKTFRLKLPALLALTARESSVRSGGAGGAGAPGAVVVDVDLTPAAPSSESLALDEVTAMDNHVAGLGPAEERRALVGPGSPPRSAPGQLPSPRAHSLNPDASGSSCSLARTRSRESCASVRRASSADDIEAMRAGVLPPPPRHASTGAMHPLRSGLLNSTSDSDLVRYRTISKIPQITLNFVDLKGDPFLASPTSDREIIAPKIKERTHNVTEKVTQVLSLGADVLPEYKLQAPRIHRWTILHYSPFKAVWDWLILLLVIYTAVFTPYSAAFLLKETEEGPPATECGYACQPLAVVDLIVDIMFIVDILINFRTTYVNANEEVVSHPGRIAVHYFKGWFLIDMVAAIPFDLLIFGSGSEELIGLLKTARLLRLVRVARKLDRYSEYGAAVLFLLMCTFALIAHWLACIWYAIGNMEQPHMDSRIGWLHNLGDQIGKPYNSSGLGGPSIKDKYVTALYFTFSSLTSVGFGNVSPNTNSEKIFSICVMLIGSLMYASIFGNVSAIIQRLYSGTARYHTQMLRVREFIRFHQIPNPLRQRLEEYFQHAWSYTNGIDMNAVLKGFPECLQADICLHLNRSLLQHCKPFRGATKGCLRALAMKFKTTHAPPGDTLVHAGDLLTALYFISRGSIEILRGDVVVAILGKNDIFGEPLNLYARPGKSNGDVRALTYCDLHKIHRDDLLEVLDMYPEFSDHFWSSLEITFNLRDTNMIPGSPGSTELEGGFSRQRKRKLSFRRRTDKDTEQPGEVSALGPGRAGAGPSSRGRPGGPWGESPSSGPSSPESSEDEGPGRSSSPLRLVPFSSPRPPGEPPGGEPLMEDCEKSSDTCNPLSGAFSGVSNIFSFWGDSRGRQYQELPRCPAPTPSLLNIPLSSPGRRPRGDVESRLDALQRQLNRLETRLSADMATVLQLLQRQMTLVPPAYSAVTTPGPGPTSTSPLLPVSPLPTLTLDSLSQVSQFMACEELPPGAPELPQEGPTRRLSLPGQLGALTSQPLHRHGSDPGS

| Structure (SMILES) | hERG current change (%, negative = inhibition) at 10uM |
| --- | --- |
| COC(=O)C(CCSC)NC(=O)C12CC3CC(CC(C3)C1)C2 (stereo not drawn) | 7.17% |
| COc1ccccc1NS(=O)(=O)c1ccc(C)c(NS(=O)(=O)c2cc(C(=O)O)cc(C)c2C)c1 | 24.2% |
| COCC(C)NC(=O)CSc1nc(-c2ccccc2)c(-c2ccccc2)o1 (stereo not drawn) | -35.9% |
| Cc1ccc2nc(CCc3ccc(N)cc3)[nH]c2c1.Cl | 8.19% |
| CCn1c(SCC(=O)Nc2nc(C)cs2)nnc1C(C)NC(=O)c1ccccc1 (stereo not drawn) | 7.9% |
| Cc1ccc2c(CN3CCOCC3)cc(=O)oc2c1C | 0.23% |
| O=C(/C=C/c1c(F)cccc1Cl)NCc1ccc2c(c1)OCO2 | 0.546% |
| CC(=O)OC(C(=O)NCCN1CCOCC1)c1c(F)cccc1F (stereo not drawn) | -5.91% |
| COc1ccc(-c2nnc3ccc(SC(C(C)=O)C(C)=O)nn23)cc1OC | -14.8% |
| O=C1CS/C(=N/N=C\c2ccn[nH]2)N1 | 13.6% |
| O=C1CCCN1CCCNc1ncnc2c1[nH]c1ccc(Cl)cc12 | -29.4% |
| CCOc1ncccc1C(=O)OCC(=O)Nc1cc(S(=O)(=O)N(CC)CC)ccc1C | -42.8% |
| COc1cc(CNCCO)cc(Br)c1OCc1ccccc1Cl.Cl | -3.45% |
| O=C(O)CCC(=O)N1N=C(c2c(-c3ccccc3)c3cc(Cl)ccc3[nH]c2=O)CC1c1ccco1 (stereo not drawn) | 0.316% |
| CCOc1ccccc1C(=O)NC(C(=O)N(C)Cc1ccc2c(c1)OCO2)C(C)C (stereo not drawn) | -34.8% |
| O=C(CC1COc2ccccc2O1)NCCc1ccccc1 (stereo not drawn) | -12.6% |
| Cc1cccc(N2CCN(CC(O)COc3ccccc3Cl)CC2)c1 (stereo not drawn) | -56% |
| CCc1nnc(SCC(=O)Nc2ccc(N3CCOCC3)cc2)o1 | -1.88% |
| CCn1nnc(-c2ccccc2NC(=O)c2cccc(-n3cnnn3)c2)n1 | -28.8% |
| FC(F)(F)c1ccc2c(c1)n(Cc1ccccc1)c1[n+]2CCCCC1.[Cl-] | -24% |
| COc1ccccc1-c1coc2c(CN3CCN(C)CC3)c(O)ccc2c1=O | 0.916% |
| CC1(C)CC(=O)C=C(Nc2ccc([N+](=O)[O-])cc2)C1 | -16.6% |
| COc1cccc(/C=C2\SC(=S)N(CCCC(=O)N3CCCC3)C2=O)c1 | -12.3% |
| S=c1[nH]nc(Cc2noc3ccccc23)n1-c1ccc(Cl)cc1 | 14.8% |
